According to PubChem BioAssay AID2100 (National Center for Advancing Translational Sciences (NCATS), 2009):
The whole screen tested about 300,000 compounds, of which about 1,200 (0.4%) were called active. The inconclusive results got no clear call from the source; some entries with a clear call stand among them for comparison. Calls follow the shape of the dose curve; as a rule, active = well fitted inhibition curve with a large enough effect; inconclusive = small, poorly fitted or top-dose-only effect, or another doubt; inactive = no such curve, though single readings can be large or run the other way. Potencies beside an inconclusive call are fits to weak or partial responses and may not hold up.

Each compound was assayed against Lysosomal alpha-glucosidase (Homo sapiens) (UniProt P10253) (assay: qHTS Assay for Inhibitors and Activators of Human alpha-Glucosidase Cleavage of Glycogen). Settings: recombinant GAA, glycogen substrate, Amplex Red glucose oxidase fluorescence; activity change, negative = inhibition: at 76.4 µM (top of the series) unless noted.
Procedure, shortened: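 Recombinant enzyme (4 nM final) with compounds titrated up to 77 uM and bovine liver glycogen (30 ug) in citrate pH 5.0, 0.01% Tween-20, 37 C 40 min. Released glucose detected by Amplex Red/glucose oxidase (Ex 573/Em 610); AC50 from Hill fits.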
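For activity change, negative = inhibition in this document: 0% = full enzyme reaction and -100% = no-enzyme basal signal.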
Potency is read from the fitted curve at half-maximal effect.

Row | SMILES | Potency | activity change, negative = inhibition
1 | Cc1ccc(S(=O)(=O)NNC(=O)c2sc(=S)n(C)c2C)cc1 | inconclusive: 14 µM [inhibitor, partial curve] | –
2 | O=C(NNc1c(Cl)cccc1Cl)c1sccc1Cl | inconclusive: 20 µM [inhibitor, partial curve] | –
3 | COC(=O)CN1C(=O)S/C(=C/c2ccc(N3CCCCC3)o2)C1=O | inconclusive: 8.91 µM [inhibitor, partial curve] | –
4 | Cc1ccc(C(=O)C2CCNCC2)cc1 | – | inconclusive: 41.2% [activator]
5 | CCC(=O)NNc1ccc(Br)cc1 | inconclusive: 6.26 µM [inhibitor, partial curve] | –
6 | O=C(Nc1ccccc1Cl)c1cc(S(=O)(=O)N2CCCC(C(=O)O)C2)ccc1F (stereo not given) | – | inconclusive: 42.8% [activator]
7 | CCOc1ccc(NC2=C(Cl)C(=O)N(Cc3ccccc3)C2=O)cc1 | inactive | –
8 | Cc1ccc2c(c1)c1c(n2CC(O)CNC2CCCCC2)CCCC1 (stereo not given) | inactive | –
9 | Cc1c(C(=O)N/N=C/C(C)C)[nH]c2c([N+](=O)[O-])cccc12 | inconclusive: 7.08 µM [inhibitor, full curve] | –
10 | C=C(C)CCC1(C)NC(=O)N(c2ccccc2)N1 (stereo not given) | inconclusive: 12.6 µM [inhibitor, partial curve] | –
11 | CCN(CC)CCOC(=O)c1ccc(NC(=O)c2nn(-c3ccc(C)cc3)c(=O)c3c2c2ccccc2n3C)cc1 | inactive | –
12 | COc1ccc(S(=O)(=O)Nc2c(C(=O)O)[nH]c3ccccc23)c(OC)c1 | active: 3.52 µM | –
13 | CCN(CC)c1ccc(/C=N/Nc2ccc(C)cc2)c(O)c1 | inconclusive: 39.8 µM [inhibitor, partial curve] | –
14 | COc1cc(C2NC(=S)NC3=C2C(=O)CCC3)ccc1O (stereo not given) | inconclusive: 50.1 µM [inhibitor, single point] | –
15 | Cc1ccc(C)c(S(=O)(=O)N/N=C/c2ccc(N3CCOCC3)cc2)c1 | inconclusive: 31.6 µM [inhibitor, partial curve] | –
16 | Cc1ccc(OCC(=O)Nc2ccc3nc(SCC(=O)N4CCCC4)sc3c2)cc1C | inactive | –
17 | CCC1CN(C(=O)Nc2cccc3c2CCCC3)c2cc(C)ccc2O1 (stereo not given) | inactive | –
18 | CCOC(=O)NNc1ccc(C(F)(F)F)cn1 | inconclusive: 9.92 µM [inhibitor, partial curve] | –
19 | Cc1ccsc1C1C(C#N)=C(N)N(N(C)C)C2=C1C(=O)CC(C)(C)C2 (stereo not given) | inconclusive: 5.01 µM [inhibitor, full curve, poor fit] | –
20 | CCNc1nc(NCC)nc(N/N=C(\C)c2ccc(OC)cc2)n1 | inconclusive: 35.5 µM [inhibitor, single point] | –
21 | O=C(NN=C1CCCC1)c1ccc(O)cc1O | inconclusive: 11.2 µM [inhibitor, single point] | –
22 | CNc1nc2[nH]c(=O)c3c(c2s1)OC(N)=C(C#N)C3c1cccc(F)c1 (stereo not given) | inactive | –
23 | N#Cc1c(C#N)c(O)c2ccccc2c1O | inconclusive: 28.2 µM [inhibitor, single point] | –
24 | CN1CCc2c(sc3c2C(=O)NC(c2cccc(OC(=O)c4cccs4)c2)N3)C1 (stereo not given) | inconclusive: 17.8 µM [inhibitor, partial curve] | –

Row | SMILES | Potency | activity change, negative = inhibition
25 | CCOc1ccc(NC(=O)CN2C(=O)C(c3ccccc3)=NC23CCCCCC3)cc1 | inconclusive: 11.2 µM [inhibitor, single point] | –
26 | Cc1ccccc1NC(=O)CC1c2ccccc2CC(C)(C)N1C (stereo not given) | inconclusive: 50.1 µM [activator, partial curve] | –
27 | COc1ccc(-c2nnc(SC(=O)N3c4ccccc4Sc4ccccc43)o2)cc1 | inconclusive: 28 µM [inhibitor, single point] | –
28 | O=C(CCCO)CCCCCCCCC[C@H]1N[C@H](CO)[C@@H](O)[C@@H]1O | inconclusive: 28.2 µM [inhibitor, partial curve] | –
29 | O=S(=O)(c1ccccc1F)N1CCN(C(=S)NCc2ccccc2)CC1 | inactive | –
30 | CCCSc1cc(NCCOC(=O)CCC)c([N+](=O)[O-])c2nonc12 | inactive | –
31 | CC(=O)N1c2ccc(N=Cc3cc(Br)cc(Br)c3O)cc2CC1C (stereo not given) | inconclusive: 22.4 µM [inhibitor, partial curve] | –
32 | Cc1ccc(C(=O)Nc2ccc(C(F)(F)F)n(C)c2=O)cc1 | inconclusive: 11.2 µM [inhibitor, single point] | –
33 | Cc1nc2c(C#N)cnn2c2c1CCNN2C | inconclusive: 28.2 µM [inhibitor, single point] | –
34 | COc1ccc(N2CCN(c3ccc(N)cc3C#N)CC2)cc1 | inconclusive: 12.5 µM [inhibitor, partial curve] | –
35 | CC(=O)C1=C(c2ccccc2)NC(=S)NC1c1ccc(O)c(O)c1 (stereo not given) | active: 3.16 µM | –
36 | COc1cc(/C=N/NC(=O)C(=O)Nc2ccccn2)ccc1O | inconclusive: 25.1 µM [inhibitor, partial curve] | –
37 | O=C(O)/C=C/C(=O)NNc1ccc([N+](=O)[O-])cc1 | active: 14 µM | –
38 | CCc1ccc2occ(CC(=O)N(Cc3ccc(N(C)C)cc3)C3CCS(=O)(=O)C3)c2c1 (stereo not given) | inconclusive: 12.6 µM [inhibitor, partial curve] | –
39 | CC(C)NC(=O)Nc1cccs1 | inconclusive: 6.31 µM [inhibitor, partial curve] | –
40 | CCCc1cc(=O)[nH]c(Nc2ccc(O)cc2C)n1 | active: 10 µM | –
41 | O=C(Nc1cc(C(=O)N2CCCC2)ccc1N1CCCC1)C1CC1 | inconclusive: 39.5 µM [inhibitor, single point] | –
42 | COc1cc(CN(C)Cc2ccccc2)cc(OC)c1O | inconclusive: 14.1 µM [inhibitor, partial curve] | –
43 | C/C=C/C=C/[C@H]1Cc2cc(O)cc(O)c2O1 | inconclusive: 39.8 µM [inhibitor, partial curve] | –
44 | Cc1onc(-c2c(Cl)cccc2Cl)c1NC(=O)NNc1ccccn1 | inconclusive: 12.5 µM [inhibitor, partial curve] | –
45 | C=CCNC(=S)NNC(=O)c1ccc(=O)n(Cc2ccccc2)c1 | inconclusive: 17.8 µM [inhibitor, partial curve] | –
46 | Cc1cc(C)c2c(-n3cccc3)c(C(=O)NCC(C)c3ccccc3)sc2n1 (stereo not given) | inactive | –
47 | CCOc1ccccc1NC(=O)c1cc2c(=O)[nH]c3ccccc3c2s1 | inconclusive: 8.91 µM [inhibitor, partial curve] | –
48 | COC(=O)Cc1[nH]nc2c1C(c1ccc(O)c(OC)c1)C(C#N)=C(N)O2 (stereo not given) | inconclusive: 10 µM [inhibitor, partial curve] | –

Row | SMILES | Potency | activity change, negative = inhibition
49 | C/C(CC(C)C)=N\Nc1ccc(S(N)(=O)=O)cc1[N+](=O)[O-] | inconclusive: 22.4 µM [inhibitor, partial curve] | –
50 | COc1ccc(NCc2cc(=O)[nH]c3ccccc23)cc1 | inconclusive: 50.1 µM [inhibitor, single point] | –
51 | Oc1ccc(C2C(c3ccccc3)=NN=C(c3ccccc3F)N2O)c(O)c1 (stereo not given) | inconclusive: 5.58 µM [inhibitor, single point] | –
52 | COC(=O)C1=C(C)N(CC2CC2)C(=NCCN2CCOCC2)N[C@H]1c1ccccc1 | inactive | –
53 | Cc1ccc(O)c(NC(=O)COCc2cc(-c3ccco3)on2)c1 | inconclusive: 14.1 µM [inhibitor, partial curve] | –
54 | CC1Cc2cc(C3(O)C(=O)c4ccccc4C3=O)ccc2N1 (stereo not given) | inconclusive: 20 µM [inhibitor, partial curve] | –
55 | O=C1CSC(=S)N1N1C(=O)c2cccc([N+](=O)[O-])c2C1=O | inconclusive: 31.4 µM [inhibitor, single point] | –
56 | COc1ccc(Nc2nc(-c3ccccc3F)nc3ccccc23)cc1OC | inactive | –
57 | CCOc1cc(/C=N/NC(=O)NN(C)c2ncc(C(F)(F)F)cc2Cl)ccc1O | inconclusive: 14.1 µM [inhibitor, partial curve] | –
58 | CCc1c(C)c(C#N)c2nc3ccccc3n2c1Nc1cccc(C(F)(F)F)c1 | inactive | –
59 | Cc1cc2n(n1)C(c1ccc3c(c1)OCO3)Nc1c(C)cccc1-2 (stereo not given) | inconclusive: 28 µM [inhibitor, single point] | –
60 | O=C(Nc1cccs1)Nc1cccnc1Cl | inconclusive: 15.8 µM [inhibitor, partial curve] | –
61 | Cc1c(NC(=O)C(=O)/C=C(\O)c2ccc(Cl)cc2)c(=O)n(-c2ccccc2)n1C | inconclusive: 20 µM [inhibitor, partial curve] | –
62 | COc1ccc(OC)c(Nc2nc(-c3sc(N)nc3C)cs2)c1 | inconclusive: 28.2 µM [inhibitor, single point] | –
63 | CCOc1ccc(N(CC(=O)NCc2cccs2)S(=O)(=O)c2c(C)noc2C)cc1 | inconclusive: 7.08 µM [inhibitor, full curve, poor fit] | –
64 | O=C(COc1ccc(Nc2ccccc2)cc1)OCC(=O)N1CCCCC1 | inconclusive: 14.1 µM [inhibitor, partial curve] | –
65 | Cc1ccc2occ(CC(=O)Nc3c(C(=O)Nc4ccc(Cl)cc4)oc4ccccc34)c2c1 | inactive | –
66 | Cc1cc(-c2ccccc2)nc(N/N=C/c2ccco2)n1 | inconclusive: 39.5 µM [inhibitor, single point] | –
67 | COc1cccc(CNCc2ccco2)c1O | inconclusive: 794 µM [inhibitor, partial curve] | –
68 | O=C1Cc2cc(S(=O)(=O)N3CCN(c4ccc(O)cc4)CC3)ccc2N1 | active: 6.71 µM | –
69 | COc1ccc(-n2c(-c3cc(-c4ccccc4)sc3N)n[nH]c2=S)cc1 | inconclusive: 3.14 µM [inhibitor, full curve, poor fit] | –
70 | COc1ccc(N2CCN(c3nc4ccccc4n4c(C)nnc34)CC2)cc1 | inconclusive: 7.94 µM [inhibitor, partial curve] | –
